From the RNAGym collection of RNA variant scans (doi:10.7554/elife.90254)
Read counts are not given, so values of variants with three or more changes are uncertain.

B1: LINE1-mini (parent)
chain: GGCAGAGCUCAACACAGCGUGGCAAAGUGGCUGUGGCUAGACUGCC

Variants of: B1
Assay: self-cleavage, relative activity (ratio to wild type); higher = more cleavage; in vitro, sequencing; the parent is a self-cleaving ribozyme

| Variant | self-cleavage |
| --- | --- |
| U28G G29A C37U G40A C45U | 0.04 |
| A25U U32A G40U | 0.05 |
| A25U G27U C45G | 0.1 |
| G27C G29U U34G | 0.49 |
| A26G G29A G40U | 0.04 |
| G29U C31G C42A | 0.06 |
| G29A C37A G40C | 0.03 |
| A26C G30C G33A U38A G44U | 0.1 |
| A25C G33U C45G | 0.39 |
| G29A C31U U34G | 0.09 |
| G27C G30C U34G | 0.11 |
| A25C G33A U34A | 0.04 |
| G27A G30U G44C | 0.52 |
| G27A A41G U43C | 0.03 |
| A26G G29A C45U C46U | 1.25 |
| A25G C31G C46U | 0.05 |
| A26U G36C G44U | 0.06 |
| A25C G35A C42G | 0.02 |
| A25U G29U G30C G36C | 0.02 |
| A25C C31U U32C | 0.06 |
| G27U C31A U32G G35A G40U | 0.01 |
| U28G G44U C46A | 0.05 |
| G27A U28A U32C | 0.08 |
| U28C U34C C45U | 1.61 |

| Variant | self-cleavage |
| --- | --- |
| A26G G27U G30U A41C G44C | 0.17 |
| A25U G33A G36U | 0.02 |
| G27A U43A C46A | 0 |
| A25U U32G G35A G36U | 0.15 |
| G29A C31U C42U | 0.25 |
| U28G C31G U38G G40A | 0.05 |
| U28G U32G G36A C45U | 0.02 |
| U28A G29C C42U | 0.11 |
| G29A G40A C42G U43G | 0 |
| G29C U32A G33A | 0.12 |
| G27U G35A C45A | 0.33 |
| G27A U28C C46U | 0.27 |
| G29U G36C C45G | 0.05 |
| A26G U32A U38G | 0.01 |
| A25C U28C U38A | 0.1 |
| U28A U34C U43A | 0.01 |
| A26U C31A G44C | 0.03 |
| U28C C31G G33C | 0.03 |
| A25G G27U C46A | 0.26 |
| A25C C37G G44A | 0 |
| A26C C37G G40C | 0.22 |
| A25G A26C G33A | 0.04 |
| G29A U32G G40U U43A | 0.09 |
| G30A A39G U43C | 0.08 |

| Variant | self-cleavage |
| --- | --- |
| G27A A39G C46U | 0 |
| A25G G33A G35U | 0.27 |
| U28A U34C C46A | 0.06 |
| G29U U32G U34C | 0.01 |
| G27U G35A G40A C42G | 0.05 |
| A26C U34A G36A C46A | 0.03 |
| G29U G40C C46A | 0.66 |
| A25U U28C C31U G40C | 0.04 |
| G27C U38C C42U | 0.03 |
| A25C G27U A39U | 0.27 |
| A25U U43C C46A | 0.05 |
| G29C A41C C42A | 0.03 |
| A26C G27A G33A U34C U43A C46G | 0.02 |
| G30A A41C U43A | 0.04 |
| A26U C31G A39G C46U | 0.01 |
| G30A C31G C37A U38G | 0.05 |
| U28A G33A U38A | 0.14 |
| U28C A41U C42U | 0.07 |
| U28A C31G C46G | 0.17 |
| G27A G29C G33U U43A C46G | 0.12 |
| G27C G29A U34A | 0.07 |
| G27C G33A U34G C37A C42A | 0.12 |
| U28G C42A C45G | 0.04 |
| A25G U32C U34A | 0.05 |

| Variant | self-cleavage |
| --- | --- |
| G29A U34G G35C | 0.04 |
| G27U C37U G40U | 0.28 |
| U28G C37A C46A | 0.04 |
| A25U G27C G35A | 0.08 |
| A25U G27C G35U | 0.06 |
| A26G G27C G33U A41U C42A | 0.13 |
| G27U G35U U38A | 0.48 |
| G30A C37G C45U | 0.06 |
| U28A G30U C46U | 0.77 |
| G29C C31U C45A | 0.13 |
| A25G G30C G33C | 0.01 |
| A26C U38C U43A | 0.2 |
| U28C G30C U38C | 0.64 |
| G29A G35C A41U | 0.03 |
| G29C C31U C46U | 0.39 |
| A25G U28C C45U | 0.14 |
| A25U G27U G35C | 0.12 |
| U28A U32A U34C C37U | 0.02 |
| A25C G27U G33U A39G G44A | 0.01 |
| G29A C37U G40U | 0.12 |
| A25C G30U G33C C45A | 0.03 |
| U28C G36U G44C | 0.07 |
| A26C U28C C42A | 0.26 |
| G29U U32C G35C | 0.01 |

| Variant | self-cleavage |
| --- | --- |
| A25C G35C C42U | 0 |
| U28A C31U U43A | 0.03 |
| U28A G36A G40U | 0.18 |
| A26U G40C G44A | 0.06 |
| A25U U28A A41C G44C | 0.07 |
| A25C G33A C37G | 0.07 |
| G29C A41C C45A | 0.04 |
| G29A G30U G33U | 0.07 |
| G29C G36U A41U | 0.03 |
| A25U U28C A39U | 1.44 |
| G29A A41U C46U | 0.81 |
| A25C G36C C46U | 0.02 |
| A26U G40U C45A | 0.16 |
| A25C U28C G33U G35C C45G | 0.08 |
| A26U U28C U32C G36A G44C | 0 |
| G29A G33C C46G | 0.05 |
| G27U A39C C45A | 0.06 |
| G27A G35A U38G | 0.03 |
| A26C G29U G35U A41G | 0.02 |
| A26G G27A G33C | 0.01 |
| G27C U28C C46A | 0.51 |
| G27U G29U G30A U34G | 0.39 |
| A26G G30A G36C A39G | 0.05 |
| G30A C31G C37U | 0.02 |

| Variant | self-cleavage |
| --- | --- |
| G27A G29U A39C A41U | 0.05 |
| G27C U28A G40U | 0.07 |
| G27U U28G A39U G44A | 0.25 |
| G27C G30A G35C | 0.13 |
| G29C G33C G35A C46A | 0.01 |
| U28C G35A C37U | 0.04 |
| A26G C42U G44A | 0.08 |
| A26U G29U C45U | 2.07 |
| A26U G30U C31G | 0.03 |
| G29U G30A C37U G40C | 0.11 |
| A25G G27U C31U | 0.25 |
| G30A G36C C37U U43A C45G | 0.05 |
| A25U G30U C31A G35U C42A | 0.03 |
| A25G U32C A39C | 0.03 |
| G29U G36C C37G | 0.07 |
| G27A G30A G36U U43A | 0.61 |
| G29U G33A G35U A41G | 0.04 |
| A25U G29A G30C A41U | 1.07 |
| A25U C37A G40U C46A | 0.45 |
| G29A C31G G36A G40U G44C | 0.05 |
| A26C U32A G35C | 0.13 |
| U28C U32G G36U | 0.03 |
| G27A U32C C42U | 0.04 |
| A25U G40C U43G | 0.02 |

| Variant | self-cleavage |
| --- | --- |
| G29U U32G G33A | 0.1 |
| G27A G29U C31U C42G | 0.03 |
| G27U U38A C45U | 0.9 |
| A25U C31A G36U | 0.02 |
| G29C U34C G36C | 0.19 |
| A25G G30C C42U | 0.02 |
| G29A U38G A41U | 0.01 |
| G27U C31A U32G | 0.08 |
| A25C G44U C46A | 0.02 |
| G30A G35C G40A | 0.03 |
| A25G G36C A39C | 0 |
| A25C G30U U32G | 0.03 |
| G29C G30C U32G G40C | 0.01 |
| A25U G29U C37U | 0.3 |
| G27U G36C C37G G44C | 0.01 |
| A25G U32A C37A A39U | 0.25 |
| A25U A26G G27U | 0.6 |
| U28A G36U C46U | 0.05 |
| U28G A39C G40U | 0.04 |
| G29U U38G G40U | 0.03 |
| U28G G35C C37A U38C C46A | 0.03 |
| G27A U32G C45A | 0.09 |
| U28C U32C G40A C46G | 0.04 |
